{
  "source": "the supplement of paper PMC8728848",
  "test_in_all_cases": "glycan array binding signal (z-score within array); higher = stronger binding",
  "settings_in_all_cases": "glycan notation: IUPAC condensed, linker removed",
  "key": {"[1]": {"molecular_target": "Gal3S(b1-3)GalNAc", "summary_of_the_method": "(§1)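 The binding signal is a Z-score computed within each array and averaged over linkers. Arrays of the same protein sequence at different concentrations or buffers were also averaged together. Data originate from 3228 arrays in the Consortium for Functional Glycomics database, kept only where the protein sequence was available.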"}, "[2]": {"molecular_target": "Gal3S(b1-3)GlcNAc", "summary_of_the_method": "as §1"}, "[3]": {"molecular_target": "Gal3S(b1-3)[Fuc(a1-4)]GlcNAc", "summary_of_the_method": "as §1"}, "[4]": {"molecular_target": "Gal3S(b1-4)Glc", "summary_of_the_method": "as §1"}, "[5]": {"molecular_target": "Gal3S(b1-4)Glc6S", "summary_of_the_method": "as §1"}, "[6]": {"molecular_target": "Gal3S(b1-4)GlcNAc", "summary_of_the_method": "as §1"}, "[7]": {"molecular_target": "Gal3S(b1-4)GlcNAc6S", "summary_of_the_method": "as §1"}, "[8]": {"molecular_target": "Gal3S(b1-4)[Fuc(a1-3)]Glc", "summary_of_the_method": "as §1"}, "[9]": {"molecular_target": "Gal3S(b1-4)[Fuc(a1-3)]Glc6S", "summary_of_the_method": "as §1"}, "[10]": {"molecular_target": "Gal3S(b1-4)[Fuc(a1-3)]GlcNAc", "summary_of_the_method": "as §1"}, "[11]": {"molecular_target": "Gal3S(b1-4)[Fuc(a1-3)]GlcNAc6S", "summary_of_the_method": "as §1"}, "[12]": {"molecular_target": "Gal3S4S(b1-4)GlcNAc", "summary_of_the_method": "as §1"}, "[13]": {"molecular_target": "Gal3S6S(b1-4)GlcNAc", "summary_of_the_method": "as §1"}, "[14]": {"molecular_target": "Gal3S6S(b1-4)GlcNAc6S", "summary_of_the_method": "as §1"}, "[15]": {"molecular_target": "Gal4S(b1-4)GlcNAc", "summary_of_the_method": "as §1"}, "[16]": {"molecular_target": "Gal4S6S(b1-4)GlcNAc", "summary_of_the_method": "as §1"}, "[17]": {"molecular_target": "Gal6P(b1-4)GlcNAc", "summary_of_the_method": "as §1"}, "[18]": {"molecular_target": "Gal6S(b1-3)GlcNAc", "summary_of_the_method": "as §1"}, "[19]": {"molecular_target": "Gal6S(b1-3)GlcNAc6S", "summary_of_the_method": "as §1"}, "[20]": {"molecular_target": "Gal6S(b1-4)Glc", "summary_of_the_method": "as §1"}, "[21]": {"molecular_target": "Gal6S(b1-4)Glc6S", "summary_of_the_method": "as §1"}, "[22]": {"molecular_target": "Gal6S(b1-4)GlcNAc", "summary_of_the_method": "as §1"}, "[23]": {"molecular_target": "Gal6S(b1-4)GlcNAc6S", "summary_of_the_method": "as §1"}, "[24]": {"molecular_target": "GalNAc(a1-3)Gal", "summary_of_the_method": "as §1"}, "[25]": {"molecular_target": "GalNAc(a1-3)GalNAc", "summary_of_the_method": "as §1"}, "[26]": {"molecular_target": "GalNAc(a1-3)GalNAc(a1-3)Gal(a1-4)Gal(b1-4)GlcNAc", "summary_of_the_method": "as §1"}, "[27]": {"molecular_target": "GalNAc(a1-3)GalNAc(b1-3)Gal(a1-4)Gal(b1-4)Glc", "summary_of_the_method": "as §1"}, "[28]": {"molecular_target": "GalNAc(a1-3)GalNAc(b1-3)Gal(a1-4)Gal(b1-4)GlcNAc", "summary_of_the_method": "as §1"}, "[29]": {"molecular_target": "GalNAc(b1-3)Gal", "summary_of_the_method": "as §1"}, "[30]": {"molecular_target": "GalNAc(b1-3)Gal(a1-4)Gal(b1-4)GlcNAc", "summary_of_the_method": "as §1"}, "[31]": {"molecular_target": "GalNAc(b1-3)Gal(a1-4)Gal(b1-4)GlcNAc(b1-3)Gal(b1-4)Glc", "summary_of_the_method": "as §1"}, "[32]": {"molecular_target": "GalNAc(b1-3)Gal(a1-6)Gal(b1-4)Glc", "summary_of_the_method": "as §1"}, "[33]": {"molecular_target": "GalNAc(b1-3)GalNAc", "summary_of_the_method": "as §1"}, "[34]": {"molecular_target": "GalNAc(b1-3)GlcNAc", "summary_of_the_method": "as §1"}, "[35]": {"molecular_target": "GalNAc(b1-4)Gal(b1-4)Glc", "summary_of_the_method": "as §1"}, "[36]": {"molecular_target": "GalNAc(b1-4)GlcNAc", "summary_of_the_method": "as §1"}, "[37]": {"molecular_target": "GalNAc(b1-4)GlcNAc(b1-2)Man", "summary_of_the_method": "as §1"}, "[38]": {"molecular_target": "GalNAc(b1-4)GlcNAc(b1-2)Man(a1-3)[GalNAc(b1-4)GlcNAc(b1-2)Man(a1-6)]Man(b1-4)GlcNAc(b1-4)GlcNAc", "summary_of_the_method": "as §1"}, "[39]": {"molecular_target": "GalNAc(b1-4)GlcNAc(b1-3)GalNAc(b1-4)GlcNAc", "summary_of_the_method": "as §1"}, "[40]": {"molecular_target": "GalNAc(b1-4)GlcNAc6S", "summary_of_the_method": "as §1"}, "[41]": {"molecular_target": "GalNAc(b1-6)GalNAc", "summary_of_the_method": "as §1"}, "[42]": {"molecular_target": "GalNAc3S(b1-4)GlcNAc", "summary_of_the_method": "as §1"}, "[43]": {"molecular_target": "GalNAc3S(b1-4)GlcNAc3S", "summary_of_the_method": "as §1"}, "[44]": {"molecular_target": "GalNAc3S(b1-4)[Fuc(a1-3)]GlcNAc", "summary_of_the_method": "as §1"}, "[45]": {"molecular_target": "GalNAc4S6S(b1-4)GlcNAc", "summary_of_the_method": "as §1"}},
  "note": "Some of the results follow.",
  "data": [
    {"binder": "GNA (Galanthus nivalis), P30617 (protein) MAKASLLILAAIFLGVITPSCLSDNILYSGETLSTGEFLNYGSFVFIMQEDCNLVLYDVDKPIWATNTGGLSRSCFLSMQTDGNLVVYNPSNKPIWASNTGGQNGNYVCILQKDRNVVIYGTDRWATGTHTGLVGIPASPPSEKYPTAGKIKLVTAK", "values": [
      {"measurement": "glycan array binding signal (z-score)", "setting": "[1]", "result": -0.141},
      {"measurement": "glycan array binding signal (z-score)", "setting": "[2]", "result": -0.112},
      {"measurement": "glycan array binding signal (z-score)", "setting": "[3]", "result": -0.11},
      {"measurement": "glycan array binding signal (z-score)", "setting": "[4]", "result": -0.156},
      {"measurement": "glycan array binding signal (z-score)", "setting": "[5]", "result": -0.075},
      {"measurement": "glycan array binding signal (z-score)", "setting": "[6]", "result": -0.147},
      {"measurement": "glycan array binding signal (z-score)", "setting": "[7]", "result": 0.332},
      {"measurement": "glycan array binding signal (z-score)", "setting": "[8]", "result": 0.166},
      {"measurement": "glycan array binding signal (z-score)", "setting": "[9]", "result": -0.108},
      {"measurement": "glycan array binding signal (z-score)", "setting": "[10]", "result": -0.145},
      {"measurement": "glycan array binding signal (z-score)", "setting": "[11]", "result": -0.174},
      {"measurement": "glycan array binding signal (z-score)", "setting": "[12]", "result": -0.065},
      {"measurement": "glycan array binding signal (z-score)", "setting": "[13]", "result": -0.101},
      {"measurement": "glycan array binding signal (z-score)", "setting": "[14]", "result": 0.015},
      {"measurement": "glycan array binding signal (z-score)", "setting": "[15]", "result": -0.166},
      {"measurement": "glycan array binding signal (z-score)", "setting": "[16]", "result": -0.063},
      {"measurement": "glycan array binding signal (z-score)", "setting": "[17]", "result": -0.137},
      {"measurement": "glycan array binding signal (z-score)", "setting": "[18]", "result": -0.18},
      {"measurement": "glycan array binding signal (z-score)", "setting": "[19]", "result": -0.173},
      {"measurement": "glycan array binding signal (z-score)", "setting": "[20]", "result": -0.09},
      {"measurement": "glycan array binding signal (z-score)", "setting": "[21]", "result": 0.004},
      {"measurement": "glycan array binding signal (z-score)", "setting": "[22]", "result": -0.105},
      {"measurement": "glycan array binding signal (z-score)", "setting": "[23]", "result": 0.095},
      {"measurement": "glycan array binding signal (z-score)", "setting": "[24]", "result": -0.223},
      {"measurement": "glycan array binding signal (z-score)", "setting": "[25]", "result": -0.302},
      {"measurement": "glycan array binding signal (z-score)", "setting": "[26]", "result": -0.172},
      {"measurement": "glycan array binding signal (z-score)", "setting": "[27]", "result": -0.176},
      {"measurement": "glycan array binding signal (z-score)", "setting": "[28]", "result": -0.173},
      {"measurement": "glycan array binding signal (z-score)", "setting": "[29]", "result": -0.058},
      {"measurement": "glycan array binding signal (z-score)", "setting": "[30]", "result": -0.073},
      {"measurement": "glycan array binding signal (z-score)", "setting": "[31]", "result": -0.214},
      {"measurement": "glycan array binding signal (z-score)", "setting": "[32]", "result": -0.142},
      {"measurement": "glycan array binding signal (z-score)", "setting": "[33]", "result": -0.175},
      {"measurement": "glycan array binding signal (z-score)", "setting": "[34]", "result": -0.159},
      {"measurement": "glycan array binding signal (z-score)", "setting": "[35]", "result": -0.15},
      {"measurement": "glycan array binding signal (z-score)", "setting": "[36]", "result": -0.241},
      {"measurement": "glycan array binding signal (z-score)", "setting": "[37]", "result": -0.169},
      {"measurement": "glycan array binding signal (z-score)", "setting": "[38]", "result": 0.048},
      {"measurement": "glycan array binding signal (z-score)", "setting": "[39]", "result": -0.177},
      {"measurement": "glycan array binding signal (z-score)", "setting": "[40]", "result": -0.188},
      {"measurement": "glycan array binding signal (z-score)", "setting": "[41]", "result": -0.166},
      {"measurement": "glycan array binding signal (z-score)", "setting": "[42]", "result": -0.178},
      {"measurement": "glycan array binding signal (z-score)", "setting": "[43]", "result": -0.172},
      {"measurement": "glycan array binding signal (z-score)", "setting": "[44]", "result": -0.171},
      {"measurement": "glycan array binding signal (z-score)", "setting": "[45]", "result": -0.156}
    ]}
  ]
}
